In all, about 33,000 sequences were measured (“E-score (-0.5 to 0.5)”: median about -0.035, highest 2% from about 0.35 on). Some of the results follow.
target: T1, Pdr3 (UniProt P33200); assay: PBM E-score (8-mer binding enrichment) (E-score (-0.5 to 0.5)); higher = stronger / more preferred TF binding; most listed sequences are background and not binding sites; conditions: protein concentration: 200 nM; construct: GST-full length
T1 sequence: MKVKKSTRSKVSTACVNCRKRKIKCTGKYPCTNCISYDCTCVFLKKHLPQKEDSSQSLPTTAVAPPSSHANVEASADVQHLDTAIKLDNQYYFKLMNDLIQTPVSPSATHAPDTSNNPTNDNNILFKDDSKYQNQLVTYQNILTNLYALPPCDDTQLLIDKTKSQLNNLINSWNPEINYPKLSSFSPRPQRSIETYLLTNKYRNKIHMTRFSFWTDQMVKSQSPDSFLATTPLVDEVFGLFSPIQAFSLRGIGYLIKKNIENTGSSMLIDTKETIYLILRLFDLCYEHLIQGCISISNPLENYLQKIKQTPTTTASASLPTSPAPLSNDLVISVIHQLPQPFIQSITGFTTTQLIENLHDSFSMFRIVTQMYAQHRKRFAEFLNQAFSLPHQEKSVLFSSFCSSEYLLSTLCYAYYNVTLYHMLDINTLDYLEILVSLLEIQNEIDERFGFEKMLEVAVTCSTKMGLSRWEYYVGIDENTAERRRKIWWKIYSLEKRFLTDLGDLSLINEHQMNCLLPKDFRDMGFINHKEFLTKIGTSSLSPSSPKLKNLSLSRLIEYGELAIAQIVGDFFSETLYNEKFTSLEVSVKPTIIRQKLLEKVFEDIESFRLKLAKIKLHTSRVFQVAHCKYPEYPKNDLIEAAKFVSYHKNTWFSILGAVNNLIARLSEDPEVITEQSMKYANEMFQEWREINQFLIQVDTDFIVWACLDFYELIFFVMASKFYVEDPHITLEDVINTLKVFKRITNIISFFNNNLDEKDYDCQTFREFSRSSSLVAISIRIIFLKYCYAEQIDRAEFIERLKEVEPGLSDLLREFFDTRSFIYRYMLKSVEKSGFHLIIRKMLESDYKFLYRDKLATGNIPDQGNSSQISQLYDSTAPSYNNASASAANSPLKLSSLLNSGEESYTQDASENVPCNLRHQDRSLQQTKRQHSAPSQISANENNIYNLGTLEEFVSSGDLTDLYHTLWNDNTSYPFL
Procedure, shortened: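 Yeast transcription factors carrying a GST tag, as full-length proteins or DNA-binding domains, were produced by PURExpress in vitro transcription/translation. About 100-200 nM protein was applied to universal all-10-mer Agilent arrays, double-stranded by primer extension on fresh or once-stripped slides. Bound protein was detected with fluorescent anti-GST, and scans were normalised with masliner. The Universal PBM Analysis Suite gave each ungapped eight-base word, pooled with its reverse complement, an E-score, a modified Wilcoxon-Mann-Whitney statistic.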

Sequence	PBM E-score
AAGGTCAA	-0.207
AACTCCAC	-0.0653
GCAGAGCA	-0.193
CTTGCGAC	-0.135
ATTTGGAA	-0.159
TAATTCCA	-0.0255
CTAGGATC	-0.0571
GACCAGGC	-0.209
ACGCTTAT	-0.243
CGGCGATC	0.279
CCGGCAGA	0.229
GCGCCGGA	0.384
GCTTAACA	-0.048
CGGCCCCA	-0.0292
ATCGAGCC	-0.00748
TCGGTGCA	0.132
CTCACATA	-0.171
TAGTGGAA	-0.014
TGAAGGCA	-0.0871
CATGCATA	-0.196
CTTTAGTA	-0.105
AGCTGTGA	-0.183
AAGTACTC	-0.121
CAATAGTA	-0.0123
AAATCCAG	0.0351

Sequence	PBM E-score
GTTCGTAA	-0.107
GTTGTCCA	-0.159
AGAATGAT	0.0426
CGAGACAC	0.011
GTTGTTTA	-0.142
AGGCCAAC	-0.0243
CTGAATCA	-0.0725
GCATGGAC	0.0875
CAGACCGG	0.226
GCGGCCGC	0.35
ACGAAGTC	-0.191
ACACTCAT	0.0346
CCCTAATC	0.00476
CATGCCCA	-0.148
ACGAAAGG	0.128
ATAAACGA	0.0334
CAACGACG	-0.192
AGCGTGTG	-0.119
ACTCTAGA	-0.141
ATCTTGGA	-0.101
GCTTTTAC	-0.162
GTGAACGA	-0.0938
CACGAGAA	-0.0897
GACCTAGC	-0.107
GCGGTTAA	0.0091

Sequence	PBM E-score
CTCGTGAA	-0.0493
CCATCGGA	0.292
ATTGATGC	0.0778
GCATAACA	-0.189
CGATCGAG	0.247
AGAGGCCG	-0.105
ATATAAAA	0.0558
CCGGCACA	0.305
ACGGTTTA	-0.0434
ACTTATCT	-0.0989
GCAAGTGC	-0.246
AACCCTAA	-0.101
ATAGAAGG	-0.00629
AGCCCCTG	-0.279
AGTGCCCG	0.117
CTGCGCTC	-0.181
ACGCGTCT	-0.126
GACGTCAA	-0.155
AGATTTTC	-0.0096
CGTCAGAC	-0.0654
AACGGCGC	0.174
GTCTTTTA	-0.192
CGTCCGAA	0.208
CACGGCAG	0.141
AACGTAAA	-0.0445

Sequence	PBM E-score
ATGATGTG	0.0436
ATAGGTCC	0.153
CTACAGCC	-0.129
CTAGGAAC	-0.0409
AAAACTGC	-0.0767
AACCGTTG	0.00312
CGTGGACA	0.108
ACGGTCGA	0.0411
CGCATGCG	0.0897
ACAGGGCC	0.0906
GCACGGGC	0.105
ATCTTTTA	-0.0573
AAAGCCGT	0.0407
CTGAATGA	-0.00634
CTGGATTC	0.105
ACTTCCTC	-0.167
CAGCCCTG	-0.246
AAGACAAA	-0.103
CAGCGGAC	0.176
TAAAGGTA	-0.168
CTTTGATC	-0.0821
CACTAAAG	-0.151
ATACCTCA	-0.0978
ATTACAAC	-0.0764
CGCAACAG	0.0606

Sequence	PBM E-score
CCCACTTA	-0.0239
CCAGATCG	-0.0299
ATTTTCAA	-0.0356
ACATAGAA	0.0158
AGCTGCCA	-0.00127
CAAACTAC	-0.156
GCTCCCAC	-0.0728
CGTTCCGC	0.453
CAACTGTA	-0.119
CCACTTCG	0.0645
ATTGTTTC	0.246
ATGTCAGG	-0.127
CCCGAGGA	0.156
CACCTAAC	-0.0279
CTGGTTTA	-0.265
TCTCGACA	-0.0593
AGTACACA	0.0616
GCTTTCGA	-0.151
CAGCTACC	-0.0514
ATTGCTCA	-0.0859
CAATCCGG	0.394
ATTTGCTC	0.00972
AGATTGTG	-0.152
CGACGCAG	-0.0882
TCCCGTAA	0.0877

Sequence	PBM E-score
AGAGAAAG	-0.168
AACAGCTG	-0.14
AACTGCAC	-0.0261
GCTGAAGA	-0.106
ACAGGCGT	-0.281
ATCTTTAA	-0.0842
ACTTATAT	0.0781
AGGGGCGC	0.0517
AAGGAGCC	-0.14
AAACTTTC	-0.0276
CCATGCTC	-0.114
CTCTGTGC	-0.0885
CAAAAGAA	0.0442
CAAGATTA	0.0526
CTTGTCTC	-0.0638
AAAGCCCC	-0.0366
CAAAGCAG	-0.0327
AGGAGGAG	-0.247
CTTTGATA	-0.0365
CGGTGTTC	0.149
GGTACGAA	-0.0407
AGGCGAAT	-0.124
GCTCACAC	-0.172
GAGATGCA	-0.0746
ATGCTGGG	-0.0137

Sequence	PBM E-score
AATTTACG	0.0921
ACCAGTCG	-0.0214
AAGTCGGC	-0.0254
CAGAGAAA	-0.0892
ATCGTGTC	0.151
ACGTGAGG	-0.0596
ATTAATGA	0.117
ATCAGAGG	-0.207
AAACAATC	0.0659
CAATCCCA	-0.105
ATACATGG	-0.00278
CGCTTGAA	0.131
GATTGCCA	0.0763
AACCAAAT	0.15
CTGCGTTA	-0.127
GCATGACA	-0.105
ATAGACAT	-0.268
CTTCGGCC	0.0859
GGAGACCC	-0.0125
GGCTGTGA	-0.173
GAGCAACC	-0.0309
ATTAGACG	-0.0456
